Reference: patent US20170128389A1, “Paediatric Compositions For Treating Multiple Sclerosis” (Novartis AG, priority 2008, published 2017)

System: patients with relapsing multiple sclerosis (MS)
Assay: long-term extension of the study (up to 36 months, FTY720 once-daily)

Structure (SMILES): CCCCCCCCc1ccc(CCC(N)(CO)CO)cc1 [FTY720, 2-amino-2-[2-(4-octylphenyl)ethyl]propane-1,3-diol]
- most frequently reported adverse events (AEs; >15% of patients): nasopharyngitis, headache, fatigue, and influenza
